Experimental data as given in the supplement of paper PMC4967469.
By IC50 is meant the dose at which the fit gives 50% viability; fits outside the tested doses are given as limits. AUC, from the same fit, is the share of area under the viability curve across the 256-fold dose range; it is 1 without any effect and falls as sensitivity rises. A top dose marked as inferred is not printed in the source and was worked back from the curve model.

Compound: CC1=C(C(=O)Nc2cc3cn[nH]c3cc2F)C(c2ccc(C(F)(F)F)cc2)CC(=O)N1 [GSK429286A]
Experiment: Viability of human cancer cell lines after 72 h of drug (GDSC screen)
Conditions: top dose inferred
Description: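 Human cancer cell lines in 384-well plates, medium with 10% serum, drug for 72 h over a 256-fold dose range (nine 2-fold or five 4-fold steps up to the top dose). Adherent lines were fixed and stained with the nucleic acid dye Syto60, suspension lines read with resazurin; signal relative to control wells, capped at 0 and 100%. One two-parameter sigmoid per drug and line, fitted in a mixed model over all curves with the slope shared within a line.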

In order of falling AUC:
1. UACC-812 (breast, adherent, top dose 20 µM)  0.991
2. TE-11 (oesophagus, adherent, top dose 20 µM)  0.988
3. T-T (oesophagus, adherent, top dose 20 µM)  0.987
4. U-698-M (B-cell leukaemia, suspension, top dose 20 µM)  0.987
5. TE-6 (oesophagus, adherent, top dose 20 µM)  0.986
6. TE-9 (oesophagus, adherent, top dose 20 µM)  0.986
7. TGBC1TKB (biliary tract, adherent, top dose 20 µM)  0.986
8. TGBC11TKB (stomach, adherent, top dose 20 µM)  0.986
9. TMK-1 (stomach, adherent, top dose 20 µM)  0.986
10. U-2-OS (osteosarcoma, adherent, top dose 20 µM)  0.986
11. U-118-MG (glioma, adherent, top dose 20 µM)  0.986
12. UACC-62 (melanoma, adherent, top dose 20 µM)  0.986
13. TE-441-T (rhabdomyosarcoma, adherent, top dose 20 µM)  0.984
14. TYK-nu (ovary, adherent, top dose 20 µM)  0.984
15. TT (thyroid, adherent, top dose 20 µM)  0.983
16. TE-1 (oesophagus, adherent, top dose 20 µM)  0.982
17. TCCSUP (bladder, adherent, top dose 20 µM)  0.981
18. TE-5 (oesophagus, adherent, top dose 20 µM)  0.981
19. TE-10 (oesophagus, adherent, top dose 20 µM)  0.981
20. TOV-21G (ovary, adherent, top dose 20 µM)  0.981
21. U-87-MG (glioma, adherent, top dose 20 µM)  0.981
22. TE-4 (oesophagus, adherent, top dose 20 µM)  0.98
23. UACC-257 (melanoma, adherent, top dose 20 µM)  0.98
24. TK10 (kidney, adherent, top dose 20 µM)  0.979
25. TC-71 (Ewing sarcoma, adherent, top dose 20 µM)  0.978
26. TGBC24TKB (biliary tract, adherent, top dose 20 µM)  0.978
27. TALL-1 (T-cell lymphoblastic leukaemia, suspension, top dose 20 µM)  0.977
28. TE-8 (oesophagus, adherent, top dose 20 µM)  0.977
29. TE-12 (oesophagus, suspension, top dose 20 µM)  0.976
30. TE-15 (oesophagus, suspension, top dose 20 µM)  0.975
31. U251 (glioma, adherent, top dose 20 µM)  0.975
32. UWB1.289 (ovary, adherent, top dose 20 µM)  0.972
33. UMC-11 (lung carcinoid, adherent, top dose 20 µM)  0.969
34. TOV-112D (ovary, adherent, top dose 20 µM)  0.968
35. TUR (B-cell lymphoma, suspension, top dose 20 µM)  0.967
36. UACC-893 (breast, adherent, top dose 20 µM)  0.967
37. TK (B-cell lymphoma, suspension, top dose 20 µM)  0.962
38. UM-UC-3 (bladder, adherent, top dose 20 µM)  0.953
39. THP-1 (acute myeloid leukaemia, suspension, top dose 20 µM)  0.95
40. TT2609-C02 (thyroid, adherent, top dose 20 µM)  0.911
41. TGW (neuroblastoma, adherent, top dose 20 µM)  0.903
42. U031 (kidney, adherent, top dose 20 µM)  0.85

“T-T (oesophagus, adherent, top dose 20 µM)” and “TALL-1 (T-cell lymphoblastic leukaemia, suspension, top dose 20 µM)” cannot be ordered by IC50: greater than 20 µM for the first, greater than 20 µM for the second.

“TC-71 (Ewing sarcoma, adherent, top dose 20 µM)” and “TCCSUP (bladder, adherent, top dose 20 µM)” cannot be ordered by IC50: greater than 20 µM for the first, greater than 20 µM for the second.

“TE-1 (oesophagus, adherent, top dose 20 µM)” and “TE-4 (oesophagus, adherent, top dose 20 µM)” cannot be ordered by IC50: greater than 20 µM for the first, greater than 20 µM for the second.

“TE-5 (oesophagus, adherent, top dose 20 µM)” and “TE-6 (oesophagus, adherent, top dose 20 µM)” cannot be ordered by IC50: greater than 20 µM for the first, greater than 20 µM for the second.

“TE-8 (oesophagus, adherent, top dose 20 µM)” and “TE-9 (oesophagus, adherent, top dose 20 µM)” cannot be ordered by IC50: greater than 20 µM for the first, greater than 20 µM for the second.

“TE-10 (oesophagus, adherent, top dose 20 µM)” and “TE-11 (oesophagus, adherent, top dose 20 µM)” cannot be ordered by IC50: greater than 20 µM for the first, greater than 20 µM for the second.

“TE-12 (oesophagus, suspension, top dose 20 µM)” and “TE-15 (oesophagus, suspension, top dose 20 µM)” cannot be ordered by IC50: greater than 20 µM for the first, greater than 20 µM for the second.

“TE-441-T (rhabdomyosarcoma, adherent, top dose 20 µM)” and “TGBC1TKB (biliary tract, adherent, top dose 20 µM)” cannot be ordered by IC50: greater than 20 µM for the first, greater than 20 µM for the second.

“TGBC11TKB (stomach, adherent, top dose 20 µM)” and “TGBC24TKB (biliary tract, adherent, top dose 20 µM)” cannot be ordered by IC50: greater than 20 µM for the first, greater than 20 µM for the second.

First: TGW (neuroblastoma, adherent, top dose 20 µM)
Second: THP-1 (acute myeloid leukaemia, suspension, top dose 20 µM)
The IC50 of the first is lower: 20 µM for the first, greater than 20 µM for the second.

TK10 (kidney, adherent, top dose 20 µM) and “TK (B-cell lymphoma, suspension, top dose 20 µM)” cannot be ordered by IC50: greater than 20 µM for the first, greater than 20 µM for the second.

“TMK-1 (stomach, adherent, top dose 20 µM)” and “TOV-21G (ovary, adherent, top dose 20 µM)” cannot be ordered by IC50: greater than 20 µM for the first, greater than 20 µM for the second.

“TOV-112D (ovary, adherent, top dose 20 µM)” and “TT2609-C02 (thyroid, adherent, top dose 20 µM)” cannot be ordered by IC50: greater than 20 µM for the first, greater than 20 µM for the second.

TT (thyroid, adherent, top dose 20 µM) and “TUR (B-cell lymphoma, suspension, top dose 20 µM)” cannot be ordered by IC50: greater than 20 µM for the first, greater than 20 µM for the second.

First: TYK-nu (ovary, adherent, top dose 20 µM)
Second: U031 (kidney, adherent, top dose 20 µM)
The IC50 of the first is higher: greater than 20 µM for the first, 16 µM for the second.

U251 (glioma, adherent, top dose 20 µM) and “U-2-OS (osteosarcoma, adherent, top dose 20 µM)” cannot be ordered by IC50: greater than 20 µM for the first, greater than 20 µM for the second.

“U-87-MG (glioma, adherent, top dose 20 µM)” and “U-118-MG (glioma, adherent, top dose 20 µM)” cannot be ordered by IC50: greater than 20 µM for the first, greater than 20 µM for the second.

“U-698-M (B-cell leukaemia, suspension, top dose 20 µM)” and “UACC-62 (melanoma, adherent, top dose 20 µM)” cannot be ordered by IC50: greater than 20 µM for the first, greater than 20 µM for the second.

“UACC-257 (melanoma, adherent, top dose 20 µM)” and “UACC-812 (breast, adherent, top dose 20 µM)” cannot be ordered by IC50: greater than 20 µM for the first, greater than 20 µM for the second.

“UACC-893 (breast, adherent, top dose 20 µM)” and “UM-UC-3 (bladder, adherent, top dose 20 µM)” cannot be ordered by IC50: greater than 20 µM for the first, greater than 20 µM for the second.

“UMC-11 (lung carcinoid, adherent, top dose 20 µM)” and “UWB1.289 (ovary, adherent, top dose 20 µM)” cannot be ordered by IC50: greater than 20 µM for the first, greater than 20 µM for the second.
